Consider 57 compounds from PMC4336329 (PLoS ONE, 2015).

Among all 310,000 compounds or so, about 14,000 (4.5%) showed an effect of 50% or more. The effect is printed as a negative number. The list shows a part of the results.
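Further: peak tail current of the secondary pulse compared with the same well before compound.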

human ether-à-go-go-related gene (hERG) potassium channel, sequence (Q12809 whole entry, looked up): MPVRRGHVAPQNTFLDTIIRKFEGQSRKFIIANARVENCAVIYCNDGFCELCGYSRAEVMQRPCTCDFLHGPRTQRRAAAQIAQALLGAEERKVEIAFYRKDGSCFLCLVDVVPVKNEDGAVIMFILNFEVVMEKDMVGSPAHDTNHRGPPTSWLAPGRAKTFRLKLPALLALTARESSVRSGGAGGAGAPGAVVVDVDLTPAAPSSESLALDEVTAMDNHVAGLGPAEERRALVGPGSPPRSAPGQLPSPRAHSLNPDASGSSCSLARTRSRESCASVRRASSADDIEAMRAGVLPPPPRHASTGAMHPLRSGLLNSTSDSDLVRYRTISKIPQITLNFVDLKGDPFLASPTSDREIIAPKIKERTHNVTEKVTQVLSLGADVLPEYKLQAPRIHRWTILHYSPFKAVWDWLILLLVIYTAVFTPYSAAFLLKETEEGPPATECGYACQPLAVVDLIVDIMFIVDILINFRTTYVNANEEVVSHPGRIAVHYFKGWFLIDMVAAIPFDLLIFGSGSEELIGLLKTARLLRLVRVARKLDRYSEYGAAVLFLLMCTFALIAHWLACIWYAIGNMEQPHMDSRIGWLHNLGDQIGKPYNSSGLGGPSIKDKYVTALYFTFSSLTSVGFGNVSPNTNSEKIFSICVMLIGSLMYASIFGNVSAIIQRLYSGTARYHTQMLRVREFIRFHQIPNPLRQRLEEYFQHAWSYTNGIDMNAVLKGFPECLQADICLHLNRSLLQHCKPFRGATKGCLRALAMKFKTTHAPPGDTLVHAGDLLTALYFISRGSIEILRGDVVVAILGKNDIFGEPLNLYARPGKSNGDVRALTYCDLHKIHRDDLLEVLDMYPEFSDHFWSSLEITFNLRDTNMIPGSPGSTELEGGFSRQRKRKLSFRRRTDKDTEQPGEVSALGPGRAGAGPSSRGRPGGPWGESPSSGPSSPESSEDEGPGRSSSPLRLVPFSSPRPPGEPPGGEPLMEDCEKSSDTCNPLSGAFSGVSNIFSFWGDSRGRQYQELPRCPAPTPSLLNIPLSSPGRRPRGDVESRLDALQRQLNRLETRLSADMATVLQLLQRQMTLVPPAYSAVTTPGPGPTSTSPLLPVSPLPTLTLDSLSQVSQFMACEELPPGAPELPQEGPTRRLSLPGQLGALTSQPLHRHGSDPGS

This experiment concerns the target human ether-à-go-go-related gene (hERG) potassium channel (human, UniProt Q12809). Nature of the experiment: primary screen, population patch clamp on CHO cells stably expressing hERG.
For `CN1CCN(C(=O)C2=C[C@@H](C3CCCCC3)C[C@@H](OCc3ccc(CO)cc3)O2)CC1`, the “hERG current change (%, negative = inhibition) at 10uM” value is -13.6%.

With `CCN(CC)CCN1C(=O)C(O)=C(C(=O)c2ccc(C)o2)C1c1ccccn1` (stereo not drawn), the “hERG current change (%, negative = inhibition) at 10uM” value is 23.4%.

Consider `O=C(NCc1cccs1)NC1CCCCC1`, for which the “hERG current change (%, negative = inhibition) at 10uM” value came out at 3.88%.

As for `COc1cccc(NS(=O)(=O)c2csc(C(N)=O)c2)c1`, the “hERG current change (%, negative = inhibition) at 10uM” value is 21.8%.

For the compound `COC(=O)c1sc(=S)n(-c2ccc(Cl)cc2)c1C`, the “hERG current change (%, negative = inhibition) at 10uM” value is on record as -8.3%.

As to `Cn1nc2c(c1C(=O)N1CCCC(C(=O)c3cc(F)ccc3F)C1)CCCC2` (stereo not drawn), the “hERG current change (%, negative = inhibition) at 10uM” value is listed as -7.41%.

On to `Cc1ccc(NC(=O)CN2CCN(CCN=CC3=C(O)CC(c4ccc(C)cc4)CC3=O)CC2)cc1` (stereo not drawn), for which the “hERG current change (%, negative = inhibition) at 10uM” value was -45.3%.

Regarding `COc1ccccc1C(=O)N1CCc2ccccc21`, the “hERG current change (%, negative = inhibition) at 10uM” value is given as 10.2%.

For `CC1(C)C(=S)N(Cc2ccccc2)c2ccccc21`, the “hERG current change (%, negative = inhibition) at 10uM” value turned out to be 14.4%.

With `O=C(Nc1ccc(Br)cc1F)C1CC(=O)N(C2CCCCC2)C1` (stereo not drawn), the “hERG current change (%, negative = inhibition) at 10uM” value is reported as 8.54%.

Turning to `CCOc1c(OC)cccc1C(=O)NCC1(c2ccccc2)CCCC1`, the “hERG current change (%, negative = inhibition) at 10uM” value is -3%.

As for `O=C(Nc1ccc(Nc2ccccc2)cc1)c1ccccc1`, the “hERG current change (%, negative = inhibition) at 10uM” value is listed as -14.4%.

As to `CCN(CC)C(=O)C(C)OC(=O)COc1ccc(Cl)cc1Cl` (stereo not drawn), the “hERG current change (%, negative = inhibition) at 10uM” value is on record as -10.3%.

For the compound `CCCCN(CCCC)C(=S)NC(=O)C(C)(C)C`, the “hERG current change (%, negative = inhibition) at 10uM” value is 5.27%.

Turning to `CC(=O)C1=C(NC(=O)c2ccccc2F)C[C@@H]2[C@H]1C2(C)C`, the “hERG current change (%, negative = inhibition) at 10uM” value is -1.47%.

In the case of `CC(C)C(NC(=O)c1ccco1)C(=O)NCC(c1ccco1)N1CCCCC1` (stereo not drawn), the “hERG current change (%, negative = inhibition) at 10uM” value was 20%.

Turning to `Cc1nnsc1C(=O)NNS(=O)(=O)c1cc(C(F)(F)F)cc(C(F)(F)F)c1`, the “hERG current change (%, negative = inhibition) at 10uM” value was 7.35%.

With `CCCCCCCCCCCCCCCC[n+]1ccc(/C=N/O)cc1.[Br-]`, the “hERG current change (%, negative = inhibition) at 10uM” value is on record as 14.9%.

Turning to `COCC(C)N1CCC(n2nccc2NC(=O)c2ccccc2Cl)CC1` (stereo not drawn), the “hERG current change (%, negative = inhibition) at 10uM” value is -47.9%.

Consider `CC(=O)c1ccc(N2CCN(C(=O)Nc3ccc(F)cc3F)CC2)cc1`, for which the “hERG current change (%, negative = inhibition) at 10uM” value is given as -24%.

Consider `CC(C(=O)Nc1cccnc1)C1Sc2ccccc2NC1=O` (stereo not drawn), for which the “hERG current change (%, negative = inhibition) at 10uM” value was determined as 2.59%.

Consider `CN1C(=O)OC(C)(C)C1=O`, for which the “hERG current change (%, negative = inhibition) at 10uM” value is on record as -2.78%.

Consider `O=C(CSc1nnc(COc2ccc(Cl)cc2)o1)N1c2ccccc2CCc2ccccc21`, for which the “hERG current change (%, negative = inhibition) at 10uM” value is on record as -8.5%.

As for `O=C(O)C(=O)O.O=S(=O)(c1ccc(Cl)cc1)N1CCC(N2CCOCC2)CC1`, the “hERG current change (%, negative = inhibition) at 10uM” value is given as -11.5%.

As to `CCOc1ccc(-c2nnn(CC(=O)NCc3ccc(OC)cc3)n2)cc1OCC`, the “hERG current change (%, negative = inhibition) at 10uM” value is -3.62%.

For `COc1ccccc1CN(C)C(=O)c1cc(-c2cccs2)nc2ccccc12`, the “hERG current change (%, negative = inhibition) at 10uM” value is given as 4.13%.

Regarding `CC(=O)NCCSc1ccc(S(=O)(=O)N2CCCC2)cn1`, the “hERG current change (%, negative = inhibition) at 10uM” value turned out to be 12.1%.

For the compound `O=C(NCCc1ccccc1)c1ccc2c(c1)OCCO2`, the “hERG current change (%, negative = inhibition) at 10uM” value came to 24.9%.

In the case of `O=C1CC(C(F)(F)C(F)(F)C(F)(F)C(F)(F)F)=Nc2ccccc2N1`, the “hERG current change (%, negative = inhibition) at 10uM” value amounted to 2.97%.

As for `COc1ccc(-c2csc3nc(-c4cccnc4)nc(Cl)c23)cc1OC`, the “hERG current change (%, negative = inhibition) at 10uM” value came to 6.04%.

On to `Oc1ccc(C=Nc2ccc(N3CCOCC3)cc2)c(O)c1`, for which the “hERG current change (%, negative = inhibition) at 10uM” value is listed as 10.4%.

`CN1/C(=c2/s/c(=C3/C(=O)N(c4ccccc4)NC3=Nc3ccccc3)n(C)c2=O)C(C)(C)c2ccccc21`: the “hERG current change (%, negative = inhibition) at 10uM” value turned out to be 13.3%.

For the compound `CCC(C)NC(=S)N(Cc1cc2cc(C)ccc2n2nnnc12)CC(C)(C)NC(C)C` (stereo not drawn), the “hERG current change (%, negative = inhibition) at 10uM” value was found to be 13.9%.

As to `COc1ccccc1NC(=S)N(CCCN(C)C)Cc1cc2cc3c(cc2[nH]c1=O)OCO3`, the “hERG current change (%, negative = inhibition) at 10uM” value is on record as 33.3%.

On to `CC(C)(C)c1ccc(NC(=O)Nc2ccc3ccccc3n2)cc1`, for which the “hERG current change (%, negative = inhibition) at 10uM” value was found to be 19%.

With `COc1ccc(OC(C)C(=O)NC2CCCCCCC2)cc1` (stereo not drawn), the “hERG current change (%, negative = inhibition) at 10uM” value was 8.42%.

As for `COc1ccc(S(=O)(=O)N2CC(O)C[C@H]2C(=O)OCC(=O)N2CCCCCC2)cc1` (stereo partly drawn), the “hERG current change (%, negative = inhibition) at 10uM” value was 58.7%.

On to `Cc1cc(Nc2c(C)cccc2C)n2nc(C)nc2n1`, for which the “hERG current change (%, negative = inhibition) at 10uM” value is 3.66%.

As to `Cc1[nH]c2ccccc2c1N=Nc1ccccc1F`, the “hERG current change (%, negative = inhibition) at 10uM” value is recorded as 25.9%.

Take `N#Cc1nc(Cc2ccccc2)oc1NCCN1CCOCC1`: the “hERG current change (%, negative = inhibition) at 10uM” value is -4.69%.

As for `COC(=O)c1ccc(NS(=O)(=O)c2ccccc2)o1`, the “hERG current change (%, negative = inhibition) at 10uM” value is on record as 24.8%.

In the case of `Cc1cc(OC(C)C(=O)NCC2CCC(C(=O)O)CC2)c2c(C)c(C)c(=O)oc2c1` (stereo not drawn), the “hERG current change (%, negative = inhibition) at 10uM” value is recorded as 4.69%.

Turning to `COc1cc(OC)nc(Oc2cccc(C(F)(F)F)c2)n1`, the “hERG current change (%, negative = inhibition) at 10uM” value was determined as 3.89%.

On to `C=CCn1c(SCC(=O)c2ccc(O)c(O)c2)nnc1-c1ccc(OC)cc1`, for which the “hERG current change (%, negative = inhibition) at 10uM” value worked out at 16.4%.

Take `NC(=O)CSc1nnc(-c2cccnc2)n1CCc1ccccc1`: the “hERG current change (%, negative = inhibition) at 10uM” value is given as 14%.

In the case of `COc1ccc(CN(Cc2ccc(C(=O)O)cc2)C(=S)Nc2ccccc2F)cc1OC`, the “hERG current change (%, negative = inhibition) at 10uM” value came out at 9.99%.

Consider `COc1ccc(/C=N/NC(=O)c2ccc(NS(=O)(=O)c3cccs3)cc2)cc1`, for which the “hERG current change (%, negative = inhibition) at 10uM” value came to 1.53%.

On to `Cc1ccc(C2CC(=O)Nc3cc4c(cc32)OCCO4)s1` (stereo not drawn), for which the “hERG current change (%, negative = inhibition) at 10uM” value was found to be 11.7%.

Regarding `Cc1ccccc1OCCC(=O)Nc1ccc2c(C)cc(=O)oc2c1`, the “hERG current change (%, negative = inhibition) at 10uM” value came to 19.9%.

On to `CC(C)=NNc1nc2c(c(=O)n(C)c(=O)n2C)n1CCc1ccccc1`, for which the “hERG current change (%, negative = inhibition) at 10uM” value is given as 2.38%.

As to `COc1cc(OC)c(NC(=O)CCNS(=O)(=O)c2cc(Br)cnc2N)cc1Cl`, the “hERG current change (%, negative = inhibition) at 10uM” value was determined as 5.03%.

In the case of `CCc1ccc(/C=C2\CN(CC)Cc3c2nc2ccccc2c3C(=O)O)cc1`, the “hERG current change (%, negative = inhibition) at 10uM” value was -4.8%.

As to `CCCNC(=O)C(NS(=O)(=O)c1ccc2c(c1)c(=O)n(C)c(=O)n2C)c1ccccc1` (stereo not drawn), the “hERG current change (%, negative = inhibition) at 10uM” value is 0.525%.

On to `Nc1ccc(SCc2nc3cccc4c3n2CCC4)cc1`, for which the “hERG current change (%, negative = inhibition) at 10uM” value was -20.7%.

As for `O=C(c1cc(-c2ccc(Cl)cc2)on1)N1CCCC1`, the “hERG current change (%, negative = inhibition) at 10uM” value was -4.61%.

Regarding `Cc1cc(SCc2c(F)cccc2Cl)nc(=O)[nH]1`, the “hERG current change (%, negative = inhibition) at 10uM” value amounted to 4.83%.

Regarding `Cc1ccc(S(=O)(=O)NC(=O)c2cc(C)n(-c3ccc(N(C)C)cc3)c2C)cc1`, the “hERG current change (%, negative = inhibition) at 10uM” value is reported as -25.2%.
